The whole screen tested about 310,000 compounds, of which about 18,000 (5.8%) were called active. Inconclusive results, whose numbers are uncertain, are shown with a selection of clear calls. The call rests on the fitted dose curve; in most records, active means well fitted inhibition curve with a large enough effect; inconclusive means small, poorly fitted or top-dose-only effect, or another doubt; inactive means no such curve, though single readings can be large or run the other way. No potency is given beside an inconclusive call; the fits are too rough.
experiment: Primary qHTS for delayed death inhibitors of the malarial parasite plastid, 48 hour incubation; details: P. falciparum luciferase growth in erythrocytes; series mostly up to 28.7 µM
Procedure, shortened: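 Luminescence readout; reporter = integrated firefly luciferase in P. falciparum. RBC culture at 2% hematocrit, 0.1% parasitemia final, 37 C/5% CO2; decreased signal taken as growth inhibition.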
On the % scale 0 is the no-effect control and ±100 the full control effect; potency means the concentration at half of the fitted maximal effect; tags describe the fitted curve by direction and shape.

Row | Compound | Potency | activity change, negative = inhibition
1 | O=S1(=O)C=CC(Nc2ccccc2)C1 (stereo not drawn) | inactive | –
2 | O=C1CC(N2CCCN(C3CC(=O)N(c4ccc(F)cc4)C3=O)CC2)C(=O)N1c1ccc(F)cc1 (stereo not drawn) | inactive | –
3 | COc1cc(C(=O)NCCSc2ccc(Cl)cc2)cc(OC)c1OC | inconclusive [inhibitor, partial curve, poor fit] | –
4 | CCOC(=O)c1c(C)[nH]c(C(=O)N/N=C\c2ccccc2O)c1C | inconclusive [inhibitor, single point] | –
5 | CCCCN(C(=O)CN1CC(C)OC(C)C1)c1c(N)n(CC(C)C)c(=O)[nH]c1=O (stereo not drawn) | inactive | –
6 | O=S(=O)(c1ccc2c(c1)CCCN2)N1CCCCC1 | inconclusive [inhibitor, partial curve, poor fit] | –
7 | Nc1c(S(=O)(=O)c2cccs2)c2nc3ccccc3nc2n1Cc1ccc2c(c1)OCO2 | active: 14.7 µM | –
8 | COc1ccc(-c2[nH]ncc2CN2CCCC(C(=O)c3ccc(OC)cc3OC)C2)cc1 (stereo not drawn) | active: 13.1 µM | –
9 | CCOC(=O)c1oc2ccccc2c1NC(=O)c1cccs1 | inconclusive [inhibitor, single point] | –
10 | COc1cccc(N(C(=O)CNC(=O)c2ccco2)C(C(=O)NC2CCCC2)c2ccco2)c1 (stereo not drawn) | inconclusive [inhibitor, partial curve] | –
11 | COc1ccc(C(=O)/C=C/N2CCCCC2)cc1OC | inconclusive [inhibitor, single point] | –
12 | O=C(CCN1C(=O)C2C3C=CC(C4CC34)C2C1=O)Nc1ccc(Cl)cc1O (stereo not drawn) | inconclusive [inhibitor, single point] | –
13 | OCCNCCNCc1ccc(-c2ccccc2)cc1 | inconclusive [inhibitor, single point] | –
14 | Cc1ccccc1-n1ncc2c1CC(C)(C)CC2NC(=O)C1=CC(=O)CC(C)(C)O1 (stereo not drawn) | inconclusive [inhibitor, single point] | –
15 | Cc1ccc(S(=O)(=O)N2CCOCC2)cc1C(=O)NCC1CCCCC1 | inconclusive [inhibitor, single point] | –
16 | COCCN(C(=O)COC(=O)CCOc1ccccc1C)c1c(N)n(Cc2ccccc2)c(=O)[nH]c1=O | inactive | –
17 | COc1cc2cc(CCCOC(=O)c3ccc(F)cc3)oc(=O)c2cc1OC | inactive | –
18 | Cc1ccc(S(=O)(=O)CCC(=O)OCC(=O)Nc2cc(S(=O)(=O)N3CCOCC3)ccc2C)cc1 | inconclusive [inhibitor, single point] | –
19 | CCOc1ccccc1NC(=O)C1CCN(S(C)(=O)=O)CC1 | inactive | –
20 | C/C(=N\NC(=O)c1c[nH]c2ccccc12)c1ccc(C)s1 | inconclusive [inhibitor, partial curve, poor fit] | –
21 | COc1ccc(OCC(=O)NNC(=S)NC(=O)C2CCCCC2)cc1 | inactive | –
22 | Cc1cccc(-n2ncc3c2CCCC3NC(=O)CCN2CCCO2)c1C (stereo not drawn) | inactive | –
23 | O=C1Cc2ccccc2C(c2ccc(Br)cc2)N1 (stereo not drawn) | inconclusive [inhibitor, single point] | –
24 | COc1ccc(-n2nnnc2SCc2nc(N)nc(N3CCOCC3)n2)cc1 | inactive | –
25 | Cc1ccc(/C([O-])=C(/C(=S)NCc2ccccc2)[n+]2cccc(CO)c2)cc1[N+](=O)[O-] | inconclusive [inhibitor, partial curve] | –

Row | Compound | Potency | activity change, negative = inhibition
26 | O=C1C(O)=C(O)C(=O)C(O)=C1O | inconclusive [inhibitor, partial curve] | –
27 | O=[N+]([O-])c1ccc(N/N=C/c2ccccc2)c(F)c1 | inactive | –
28 | O=c1cc(Cl)[nH]c(=O)n1CCNc1ncc(C(F)(F)F)cc1Cl | inactive | –
29 | CC1(C)C(=O)OC(c2cccc([N+](=O)[O-])c2)C2(CCCCC2)C1=O (stereo not drawn) | inconclusive [inhibitor, partial curve] | –
30 | c1cnc2c(C3NCCc4c3[nH]c3ccccc43)cccc2c1 (stereo not drawn) | inconclusive [inhibitor, single point] | –
31 | CC(C)NC(=O)N1CCC(c2nc3ccccc3s2)CC1 | – | inactive: 8.88% [at 0.00184 µM]
32 | CCOC(=O)C(Oc1ccc2c(-c3ccccc3)cc(=O)oc2c1)c1ccccc1 (stereo not drawn) | inconclusive [inhibitor, single point] | –
33 | Cc1c(Cl)cccc1NC(=S)NCc1ccc(F)cc1 | inconclusive [inhibitor, single point] | –
34 | CCCCCN(C(=O)CCC(=O)OC(C)C(=O)c1ccccc1)c1c(N)n(CCCC)c(=O)[nH]c1=O (stereo not drawn) | inactive | –
35 | CCOC(=O)c1sc(=S)n(C)c1NC(=O)c1ccc(C(C)(C)C)cc1 | inconclusive [inhibitor, single point] | –
36 | CC(C)CN(C(=O)Cn1nnc(-c2ccc(F)cc2)n1)C1CCS(=O)(=O)C1 (stereo not drawn) | inconclusive [inhibitor, single point] | –
37 | O=C(Nc1cccc2ncccc12)C(Cl)(Cl)Cl | inconclusive [inhibitor, single point] | –
38 | CC(Oc1ccc(F)cc1)C(=O)Nc1cc(S(=O)(=O)N2CCCCC2)ccc1N1CCOCC1 (stereo not drawn) | active: 8.28 µM | –
39 | CCOc1ccc(NC(=O)CN(C)C(=O)COc2cccc3c2OC(C)(C)C3)cc1OCC | active: 13.1 µM | –
40 | CC1(C)Cc2cccc(OCC(=O)Nc3cccnc3)c2O1 | inconclusive [inhibitor, partial curve, poor fit] | –
41 | CC1CCc2cc(F)ccc2N1C(=O)CCC(=O)O (stereo not drawn) | inactive | –
42 | CCOc1ccc(-c2nc3n(c(=O)c2C#N)CCCS3)cc1 | inactive | –
43 | CN(Cc1ccccc1)c1ccc(C(CC(N)=O)NC(=O)Cc2cccc3ccccc23)cc1[N+](=O)[O-] (stereo not drawn) | inconclusive [inhibitor, single point] | –
44 | O=C(NCC(=O)N1CCN(S(=O)(=O)/C=C/c2ccccc2)CC1)c1ccc(Cl)cc1 | inactive | –
45 | CC(C)(C)NC(=O)CSc1ncnc2c1cnn2-c1ccccc1 | inconclusive [inhibitor, full curve, poor fit] | –
46 | CCCn1c(=O)n(C)c(=O)c2c(SCC(=O)NCC(c3ccccc3)N(C)C)nc(CC(C)C)nc21 (stereo not drawn) | inconclusive [inhibitor, partial curve] | –
47 | CC1CCCN(C(=O)CN2C(=O)C(C)Oc3ccccc32)C1 (stereo not drawn) | inactive | –
48 | COc1cc(C#N)c(NC(=O)CN2CCC(C(N)=O)CC2)cc1OC | inactive | –
49 | COC(=O)c1ccc(C2NC(=O)c3c(sc(C)c3C)N2)cc1 (stereo not drawn) | inactive | –
50 | COC(=O)c1ccc(NC(=O)c2ccc3nsnc3c2)cc1 | inactive | –

Row | Compound | Potency | activity change, negative = inhibition
51 | CCOC(=O)C1C(=O)OC(C)(C)C1C(CC)C(=O)c1c(C)cc(C)cc1C (stereo not drawn) | inconclusive [inhibitor, partial curve] | –
52 | CSCc1c(C(=O)NC2CCCc3ccccc32)oc2ccccc12 (stereo not drawn) | inactive | –
53 | CCc1cc2c(-c3ccccc3)cc(=O)oc2cc1OC(C)C(=O)NCC1CCC(C(=O)O)CC1 (stereo not drawn) | inconclusive [inhibitor, single point] | –
54 | COc1cc2nc(CN3CCOCC3)n(CC(=O)NCC(F)(F)F)c(=O)c2cc1OC | inactive | –
55 | O=C(CCS(=O)(=O)c1cc(Br)cc2c1N(C(=O)C1CC1)CC2)NCc1ccco1 | active: 8.28 µM | –
56 | C=CCOc1ccccc1CN1CCC(Oc2cc(C(=O)NC3CC3)ccc2OC)CC1 | inconclusive [inhibitor, single point] | –
57 | Cc1cc(C)cc(OCC(=O)Nc2ccc(N3CCOCC3)cc2N2CCOCC2)c1 | active: 11.7 µM | –
58 | CCn1c(CNC(=O)c2ccccc2)nnc1SCC(=O)N1CCN(c2ccccc2)CC1 | inconclusive [inhibitor, single point] | –
59 | CC(C)(C)OC(=O)N1CCC(CC2CC(c3ccccc3)=NO2)(C(=O)NCc2ccccc2)CC1 (stereo not drawn) | active: 0.262 µM | –
60 | CCC(=O)Nc1nnc(-c2cccs2)s1 | inactive | –
61 | COCCCN(C(=O)c1ccccc1F)c1nc(-c2ccc(OC)cc2)cs1 | inconclusive [inhibitor, partial curve, poor fit] | –
62 | CC1CCCCN1C(=O)Cn1c(=O)oc2cc(S(=O)(=O)N3CCCCC3)ccc21 (stereo not drawn) | inconclusive [inhibitor, partial curve, poor fit] | –
63 | Oc1ccc(N2CCN(c3nc(-c4cccs4)nc4ccccc34)CC2)cc1 | inconclusive [inhibitor, partial curve, poor fit] | –
64 | CC(C)(C)c1ccc(/C=C2\Oc3cc(O)ccc3C2=O)cc1 | inconclusive [inhibitor, full curve, poor fit] | –
65 | COc1cc(C(=O)Nc2ccncc2)cc(OC)c1OC | inactive | –
66 | Cc1nc(NC(=O)C2CCCC2)sc1Cc1ccc2c(c1)OCO2 | inconclusive [inhibitor, single point] | –
67 | CCCCn1c(CNC(=O)Cc2ccccc2)nc2ccccc21 | inactive | –
68 | CN1C(=O)/C(=C/c2cc3c(cc2Br)OCO3)NC1=S | inactive | –
69 | O=C(c1ccco1)N1CCN(C(=O)c2cc(Cl)nc3ccccc23)CC1 | inconclusive [inhibitor, single point] | –
70 | COc1cccc(NC(=O)CCS(=O)(=O)c2ccc(Br)cc2)c1 | inactive | –
71 | CCOC(=O)CN(C(=O)COc1nc(-c2ccccc2)cc(C)c1C#N)c1cccc(OC)c1 | active: 7.38 µM | –
72 | O=C(NCc1cccc(Cl)c1)c1ccc2nc(N3CCOCC3)sc2c1 | inactive | –
73 | COc1cccc(C(c2c(O)nc(SC)n(C)c2=O)c2c(O)nc(SC)n(C)c2=O)c1 | inconclusive [inhibitor, partial curve, poor fit] | –

— PubChem BioAssay AID504832 (National Center for Advancing Translational Sciences (NCATS), 2011)
